This is one part of the list. Shown are side measurements of this screen, not its main read-out; they come without a call. Most of these compounds were active or inconclusive in the main read-out, so they are no random draw.

The assay in a line: beta-lactam sensitization of Mtb H37Rv, H37Rv (AID 434955).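 Also: growth measured after seven days incubation then overnight dye step; 0% = bacteria only wells and 100% = bacteria with antibiotic.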 As to conditions: M. tuberculosis H37Rv growth with meropenem, percent inhibition; measured here: primary screen without meropenem; at 25 µM.
In general, inhibition refers to the change of the read-out against control, counted positive when it falls. As to `CSc1ccccc1OCc1cc(C(=O)NC2CCOC(C)(C)C2)no1` (stereo not given), the inhibition is -9.04%.
With `c1ccc(-c2noc(-c3cccc4ccccc34)n2)cc1` the figure was 35.3%; with `OC(COc1ccc2cc(Br)ccc2c1)CN1CCCC1` (stereo not given), 1.04%; with `COC(=O)C1C(=O)NC(SC)=C(C#N)C1c1ccccc1F` (stereo not given), -2.32%.
With `CCN1c2ccccc2-c2nc3ccccc3n2C1c1cccs1` (stereo not given) the figure was 1.61%; with `CC(=O)N(CN1C(=O)c2ccccc2C1=O)c1ccc2c(c1)oc1ccccc12`, -1.54%.
With `Cc1ccc(C(=O)C2=C(O)C(=O)N(Cc3cccnc3)C2c2ccc(Br)cc2)o1` (stereo not given) the figure was -4.93%.
Turning to `COC(=O)c1c(NC(=O)c2ccc(C)cc2)csc1C`, the inhibition amounted to 32.1%.
As for `O=C(N[C@H]1CCC(=O)N(CCSc2ccc(Br)cc2)CC1)OCc1ccccc1`, the inhibition turned out to be 97.6%.
Next, `O=C1CN(C(=S)NC(=O)c2ccc(-c3ccccc3)cc2)CCN1`: 8.28%; `Cc1cc(NC(=O)CSc2nnc(CNC(=O)c3ccc(C(C)(C)C)cc3)o2)no1`: 5.55%; `Cc1ccc(-c2[nH][nH]c(=O)c(=O)c2N=Nc2ccccc2)cc1`: 33.9%.
Next, `CCOc1ccc2[nH]c(C)cc(=O)c2c1`: -4.26%.
With `Nc1c(C(=O)NCCc2ccccc2)nnn1Cc1ccccc1` the figure was 3.23%; with `O=C(NCCN1CCOCC1)c1ccc(CS(=O)(=O)c2ccc(Br)cc2)o1`, -8.72%.
Turning to `O=C(Nc1nc2cc3c(cc2s1)OCCO3)c1ccco1`, the inhibition worked out at 14.9%.
Next, `CCOC(=O)c1cccc(NC(=O)CCn2nc(C)c(S(=O)(=O)N3CCCCC3)c2C)c1`: -3.58%; `Cc1ccc(C(=O)COC(=O)C(C)N2C(=O)C3C4CCC(C4)C3C2=O)cc1C` (stereo not given): 2.14%.
Next, `CC(=O)NC(c1cc(Cl)c2cccnc2c1O)C1CC1` (stereo not given): 83.8%; `COc1cccc(C(=O)N2CCC(n3nccc3NC(=O)C(OC)c3ccccc3)CC2)c1` (stereo not given): -3.2%; `COc1ccc(C(=O)NCC(=O)NCC(=O)OCC(=O)c2ccc(C)cc2)cc1`: -10.3%.
As for `Cn1cc([N+](=O)[O-])c(C(=O)Nc2sc3c(c2C#N)CCC3)n1`, the inhibition was -0.23%.
With `C=CCOc1cccc(/C=N/NC(=O)CC(=O)NC2CCCCC2)c1` the figure was -8.12%.
Consider `O=C(CCSc1ccc(Cl)c(Cl)c1)NC12CC3CC(CC(C3)C1)C2`, for which the inhibition worked out at 41%.
With `CCC(C)NC(=O)CC1Oc2ccc(C)cc2NC1=O` (stereo not given) the figure was -0.55%; with `COc1ccc2c(C)nc(Nc3nc(-c4ccccc4)cc(=O)[nH]3)nc2c1`, 24.2%; with `N#CC1=C2C=Cc3ccccc3N2CCCC1=O`, 16.2%.
For the compound `COC(=O)c1ccccc1NC(=O)Cn1c(-c2nonc2N)nc2ccccc21`, the inhibition is -9.37%.
`c1ccc(-c2n[nH]c3c2CCC3)cc1`: the inhibition was 49.1%.
Next, `Cc1cccc(C)c1OCC(=O)NNC(=O)CNC(=O)c1ccc(OC(F)F)cc1`: 65.1%; `C=CCNc1nc2ccccc2nc1NS(=O)(=O)c1ccc(F)cc1`: -0.58%; `COc1cccc(C2C(C(=O)c3ccc(C)o3)=C(O)C(=O)N2CCN2CCOCC2)c1OC` (stereo not given): 0.43%.
With `COc1cc(NC(=O)CN(C)S(=O)(=O)c2cccs2)cc(OC)c1` the figure was 0.41%; with `Cc1ccccc1N1CCN(CCN2C(=O)CC(=C3c4ccccc4-c4ccccc43)C2=O)CC1`, -2.78%.
Consider `COC(=O)c1ccc(-c2nc(CN3CCC(C(=O)N4CCOCC4)CC3)c(C)o2)cc1`, for which the inhibition was -1%.
Turning to `O=C(NCC1CCCO1)C(=O)N/N=C/c1cccc(Cl)c1` (stereo not given), the inhibition was -5.69%.
For the compound `O=C(CSc1ncn[nH]1)Nc1cccc2ccccc12`, the inhibition is 16.9%.
With `COc1ccc(Nc2ncnc3sc(C)cc23)cc1` the figure was 6.34%.
With `CCOC(=O)N1CCC(Nc2c(NCCCN3CCN(CC)CC3)c(=O)c2=O)CC1` the figure was -2.47%; with `COC(=O)Cn1cnc2c(oc3ccccc32)c1=O`, 4.41%; with `COc1cccc(S(=O)(=O)N2CCN(Cc3ccc4c(c3)OCO4)CC2)c1`, -2.07%.
On to `Cc1cccc(OCc2nc(-c3ccccn3)n[nH]2)c1`, for which the inhibition amounted to 15.2%.
With `COc1ccc(-c2sc3cc4c(cc3c2C#CC2(O)CCCCC2)OCO4)cc1` the figure was 91.9%; with `CC(C)N1CC23C=CC(O2)C(C(=O)OCc2ccccc2)C3C1=O` (stereo not given), 0.67%; with `Cc1cc(NC(=O)C(C)SCC(=O)OCc2c(Cl)cccc2Cl)no1` (stereo not given), 2.46%.
Next, `Cc1ccc(NC(=O)CN2C(=O)S/C(=C/c3ccncc3)C2=O)cc1`: -5.55%.
Regarding `CCOC(=O)CNC(=O)c1cccnc1Oc1ccc(Cl)cc1`, the inhibition worked out at 42.7%.
Next, `COc1ccc(C(=O)NCC(=O)OCCCOC(=O)CNC(=O)c2ccc(OC)c(OC)c2)cc1OC`: 4.89%; `CCCNc1c(NC(=O)c2cccs2)c(=O)oc2ccccc12`: -1.08%.
With `O=C(CCc1ccccc1)NC(=S)Nc1ccccc1[N+](=O)[O-]` the figure was 4.39%.
With `CN1C(=O)C(Cc2cnc[nH]2)NC1=S` (stereo not given) the figure was -2.02%; with `Cc1ccc(Cn2ccc(NC(=O)c3cc(-c4ccco4)on3)n2)cc1`, -2.45%; with `Cc1cc(C)cc(NC(=S)NN)c1`, 11.2%.
For the compound `COc1cccc(-c2ccc(NC(=O)C3CCCN(Cc4cnc(C)s4)C3)cc2)c1` (stereo not given), the inhibition was found to be 66.4%.
Next, `Cc1onc(-c2ccccc2)c1C(=O)NNC(=S)NC(=O)/C=C/c1ccccc1`: -7.55%.
Next, `COCC(=O)N1CCC(Oc2ccc(C(=O)N(C)C(C)c3ccon3)cc2)CC1` (stereo not given): 0.05%; `O=c1c2ccccc2nc(-c2ccco2)n1CCc1ccc(O)cc1`: 5.86%; `COc1ccc(-c2ncccc2OC(=O)C23CC4CC(CC(C4)C2)C3)cc1`: 23%.
Next, `Cc1nc(NC(=O)c2cc3ccccc3o2)ccc1Br`: -1.41%.
For the compound `CCOC(=O)C1CCN(Cc2oc(CO)cc(=O)c2O)CC1`, the inhibition is 6.71%.
With `CC(C)C[C@H](NC(=O)OC(C)(C)C)C(=O)N1CCC(C(=O)N[C@@H](Cc2c[nH]c3ccccc23)C(=O)O)CC1` the figure was -5.71%; with `CCn1c(=O)cc(OCC(=O)N(C)C2CCCCC2)c2ccccc21`, -2.51%.
For `Cc1cccc(NC(=O)c2cc3ccccc3c(=O)o2)n1`, the inhibition is 5.76%.
With `CCc1nnc(NC(=O)c2ccc3nc(CC)c(CC)nc3c2)s1` the figure was 10.6%.
Next, `Cc1cc(C(=O)N2CCCC(CO)(Cc3ccc(F)cc3)C2)c(C)o1` (stereo not given): 1.96%; `Cc1nc(-c2ccccc2)sc1C(=O)Nc1ccc(S(N)(=O)=O)cc1`: 2.75%; `Cc1[nH]n(-c2ccccc2)c(=O)c1/C=N/NC(=O)c1ccoc1C`: 7.49%.
Next, `CCN(C(=O)C1CCCN1S(=O)(=O)c1ccc2c(c1)n(C)c(=O)c(=O)n2C)c1ccccc1` (stereo not given): -4.69%; `O=C(COC(=O)c1cccc(NC(=O)c2ccco2)c1)c1ccc(Br)cc1`: -6.74%; `COc1c(F)c(F)c(C(=O)Nc2c(C)cc(Br)cc2C)c(F)c1F`: 31.3%.
With `C=CCn1cc(C(=O)NCCCOC)c(=O)c2cc(S(=O)(=O)N(CC)CC)ccc21`, the inhibition is -3.83%.
Next, `CCOc1ccc(/C=C2\C(=O)c3ccccc3OC2c2ccccc2)cc1` (stereo not given): 6.67%.
With `C=CCn1c(SCc2cccc(F)c2)nc2cc(C(=O)N3CCC(C(N)=O)CC3)ccc2c1=O` the figure was 7.03%.
`CN(C)S(=O)(=O)c1ccc(C(=O)Nc2cccc(C(=O)N3CCOCC3)c2)cc1`: the inhibition was -14.1%.
Next, `CC(C)c1nc(CNC(=O)C2CCC(=O)N(CCc3ccc(Cl)cc3)C2)no1` (stereo not given): -9.06%; `COc1ccccc1OCC(=O)NCC1CCCN(Cc2cnn(C)c2C)C1` (stereo not given): -2.13%.
Turning to `COC1CCN(C(=O)C2CCC(=O)N(CCc3cccc(F)c3)C2)CC1` (stereo not given), the inhibition was -6.29%.
In the case of `COC(=O)c1ccc(NC(=O)CCN2C(=O)C3C4CCC(C4)C3C2=O)cc1` (stereo not given), the inhibition was -1.98%.
With `COc1ccc(-c2cc(C(N)=O)nc(N3CCCCCC3)n2)cc1` the figure was 42%; with `CN(c1ccc(OCC(=O)OCC(=O)c2c(N)n(C)c(=O)n(C)c2=O)cc1)S(=O)(=O)c1ccc2ccccc2c1`, 2.94%.
Next, `CCOC(=O)N1CCN(C(=O)CCN2C(=O)/C(=C\c3ccccc3OC)SC2=S)CC1`: -5.52%.
Next, `CN=C(SCc1ccccc1)c1c(O)n(C)c(=O)n(C)c1=O`: -1.21%; `O=C(Nc1ccc(C(=O)N2CCOCC2)cc1)c1cccc(Br)c1`: -2.43%.
For `CC(=O)OCC(=O)[C@@]1(O)CC[C@H]2[C@@H]3CCC4=CC(=O)C=C[C@]4(C)[C@H]3C(=O)C[C@@]21C`, the inhibition came to 2.07%.
With `O=C(NCc1ccco1)C12CC3CC(C1)CC(C(=O)NCc1ccco1)(C3)C2` the figure was -12.8%; with `COC(=O)C1CCN(S(=O)(=O)c2ccc(NC(C)=O)cc2)CC1`, 4.26%; with `COc1ccc(CCN2CC(C(=O)N3CCC(OC)CC3)CCC2=O)cc1` (stereo not given), -1.93%.
With `C=CCOn1c(=O)c(-c2ccc(Br)cc2)[n+]([O-])c2ccccc21` the figure was 5.53%; with `O=C(O)C1CC(=O)N(c2ccc(OCc3ccccc3Cl)cc2)C1` (stereo not given), 35.8%.
With `O=C(Nc1ccncc1)c1cn(-c2ccccc2)nc1-c1cccs1` the figure was -0.41%; with `Cc1ccc(S(=O)(=O)Oc2ccc(/C=N/NC(=O)c3ccncc3)cc2)cc1`, 95.1%.
Consider `Cc1n[nH]c(C)c1CCN(C)C(=O)C1CCC(=O)N(CC2CCCCC2)C1` (stereo not given), for which the inhibition was determined as 4.1%.
Next, `COc1ccc(NC(=O)CSc2nc3sc(C)c(C)c3c(=O)n2Cc2ccco2)cc1`: 1.68%; `Cc1cc(NC(=O)/C=C/c2ccccc2Cl)n(-c2nc3ccccc3[nH]2)n1`: 39.2%.
With `Cc1ccc(-c2nn3c(C)nnc3s2)cc1NC(=O)c1ccc(Br)o1` the figure was 0.16%; with `COc1cccc(/C=C2\SC(=O)N(CC(=O)NC3C=CS(=O)(=O)C3)C2=O)c1` (stereo not given), 2.52%.
Consider `O=C(CCC1CCN(C(=O)c2ccccc2Cl)CC1)NCc1ccc(F)cc1`, for which the inhibition came to 4.2%.
Next, `Cc1ccc(N(Cc2cc(=O)[nH]c3ccccc23)C(=O)CCl)cc1`: 80.7%; `O=C(O)CSc1c2c(nc3cc(C(=O)Nc4cccc(C(F)(F)F)c4)ccc13)CCC2`: 1.06%; `CC1=C(C(=O)OC(C)C)C(c2cccs2)N2C(=O)CCSC2=N1` (stereo not given): -10.4%.
Regarding `COc1cccc(OC)c1C(=O)Nc1ccc(C(=O)NCc2ccccc2)cc1`, the inhibition came out at 1.01%.
Next, `CC(NC(=O)CSc1nc2ccccc2c(=O)[nH]1)c1ccccc1` (stereo not given): 30.5%; `O=C1CC(=O)Nc2cc(S(=O)(=O)N3CCOc4ccc(Cl)cc43)ccc2N1`: -5.19%; `O=C(NCc1ccccc1OC(F)(F)F)C1CCC(=O)N(Cc2cccc(F)c2)C1` (stereo not given): -2.01%.
With `COc1ccc(NC(=O)CCc2nnc3ccc(NCc4ccc5c(c4)OCO5)nn23)cc1` the figure was 3.5%.

These data come from PubChem BioAssay AID434955 (Southern Research Specialized Biocontainment Screening …, 2010).
